# Test results: the supplement of paper PMC8728848
# Some of the results follow.
# Key:
# Assay in all cases: glycan array binding signal (z-score within array); higher = stronger binding
# Conditions in all cases: glycan notation: IUPAC condensed, linker removed
# [1] = target: GlcNAc(a1-4)Gal(b1-4)GalNAc
# Summary of the method: (§1)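 The binding signal is a Z-score computed within each array and averaged over linkers. Arrays of the same protein sequence at different concentrations or buffers were also averaged together. Data originate from 3228 arrays in the Consortium for Functional Glycomics database, kept only where the protein sequence was available.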
# [2] = target: GlcNAc(a1-4)Gal(b1-4)GlcNAc
# Summary of the method: as §1
# [3] = target: GlcNAc(a1-4)Gal(b1-4)GlcNAc(b1-3)Gal(b1-4)Glc
# Summary of the method: as §1
# [4] = target: GlcNAc(a1-4)Gal(b1-4)GlcNAc(b1-3)Gal(b1-4)GlcNAc
# Summary of the method: as §1
# [5] = target: GlcNAc(a1-4)Gal(b1-4)GlcNAc(b1-3)Gal(b1-4)GlcNAc(b1-3)Gal(b1-4)GlcNAc
# Summary of the method: as §1
# [6] = target: GlcNAc(a1-4)Gal(b1-4)GlcNAc(b1-3)Gal(b1-4)[Fuc(a1-3)]GlcNAc(b1-3)Gal(b1-4)[Fuc(a1-3)]GlcNAc
# Summary of the method: as §1
# [7] = target: GlcNAc(a1-6)Gal(b1-4)GlcNAc
# Summary of the method: as §1
# [8] = target: GlcNAc(b1-2)Gal(b1-3)GalNAc
# Summary of the method: as §1
# [9] = target: GlcNAc(b1-2)Man(a1-3)[GlcNAc(b1-2)Man(a1-6)]Man(b1-4)GlcNAc(b1-4)GlcNAc
# Summary of the method: as §1
# [10] = target: GlcNAc(b1-2)Man(a1-3)[GlcNAc(b1-2)Man(a1-6)]Man(b1-4)GlcNAc(b1-4)[Fuc(a1-6)]GlcNAc
# Summary of the method: as §1
# [11] = target: GlcNAc(b1-2)[GlcNAc(b1-4)]Man(a1-3)[GlcNAc(b1-2)Man(a1-6)]Man(b1-4)GlcNAc(b1-4)GlcNAc
# Summary of the method: as §1
# GlcNAc(b1-3)Gal = target: GlcNAc(b1-3)Gal
# Summary of the method: as §1
# [12] = target: GlcNAc(b1-3)Gal(b1-3)GalNAc
# Summary of the method: as §1
# GlcNAc(b1-3)Gal(b1-4)Glc = target: GlcNAc(b1-3)Gal(b1-4)Glc
# Summary of the method: as §1
# [13] = target: GlcNAc(b1-3)Gal(b1-4)GlcNAc
# Summary of the method: as §1
# [14] = target: GlcNAc(b1-3)Gal(b1-4)GlcNAc(b1-3)Gal(b1-4)GlcNAc
# Summary of the method: as §1
# GlcNAc(b1-3)GalNAc = target: GlcNAc(b1-3)GalNAc
# Summary of the method: as §1
# GlcNAc(b1-3)Man = target: GlcNAc(b1-3)Man
# Summary of the method: as §1
# [15] = target: GlcNAc(b1-3)[GlcNAc(b1-4)][GlcNAc(b1-6)]GlcNAc
# Summary of the method: as §1
# [16] = target: GlcNAc(b1-3)[GlcNAc(b1-6)]Gal(b1-4)GlcNAc
# Summary of the method: as §1
# [17] = target: GlcNAc(b1-3)[GlcNAc(b1-6)]GalNAc
# Summary of the method: as §1
# [18] = target: GlcNAc(b1-4)Gal(b1-4)GlcNAc
# Summary of the method: as §1
# GlcNAc(b1-4)GlcNAc = target: GlcNAc(b1-4)GlcNAc
# Summary of the method: as §1
# [19] = target: GlcNAc(b1-4)GlcNAc(b1-4)GlcNAc
# Summary of the method: as §1
# [20] = target: GlcNAc(b1-4)GlcNAc(b1-4)GlcNAc(b1-4)GlcNAc(b1-4)GlcNAc
# Summary of the method: as §1
# [21] = target: GlcNAc(b1-4)GlcNAc(b1-4)GlcNAc(b1-4)GlcNAc(b1-4)GlcNAc(b1-4)GlcNAc
# Summary of the method: as §1
# [22] = target: GlcNAc(b1-4)[GlcNAc(b1-6)]GalNAc
# Summary of the method: as §1
# [23] = target: GlcNAc(b1-6)Gal(b1-4)GlcNAc
# Summary of the method: as §1
# GlcNAc(b1-6)GalNAc = target: GlcNAc(b1-6)GalNAc
# Summary of the method: as §1
# GlcNAc3Prop(b1-4)GlcNAc = target: GlcNAc3Prop(b1-4)GlcNAc
# Summary of the method: as §1
# [24] = target: GlcNAc6S(b1-3)Gal(b1-4)GlcNAc
# Summary of the method: as §1
# Kdn(a2-3)Gal(b1-3)GalNAc = target: Kdn(a2-3)Gal(b1-3)GalNAc
# Summary of the method: as §1
# Kdn(a2-3)Gal(b1-3)GlcNAc = target: Kdn(a2-3)Gal(b1-3)GlcNAc
# Summary of the method: as §1
# Kdn(a2-3)Gal(b1-4)Glc = target: Kdn(a2-3)Gal(b1-4)Glc
# Summary of the method: as §1
# Kdn(a2-3)Gal(b1-4)GlcNAc = target: Kdn(a2-3)Gal(b1-4)GlcNAc
# Summary of the method: as §1
# [25] = target: Kdn(a2-3)Gal(b1-4)[Fuc(a1-3)]GlcNAc
# Summary of the method: as §1
# Kdn(a2-6)Gal(b1-4)GlcNAc = target: Kdn(a2-6)Gal(b1-4)GlcNAc
# Summary of the method: as §1
# [26] = target: Man(a1-2)Man(a1-2)Man(a1-3)Man
# Summary of the method: as §1
# [27] = target: Man(a1-2)Man(a1-2)Man(a1-6)[Man(a1-3)]Man
# Summary of the method: as §1
# Man(a1-2)Man(a1-3)Man = target: Man(a1-2)Man(a1-3)Man
# Summary of the method: as §1
# [28] = target: Man(a1-2)Man(a1-3)[Man(a1-2)Man(a1-6)]Man
# Summary of the method: as §1
# [29] = target: Man(a1-2)Man(a1-3)[Man(a1-2)Man(a1-6)]Man(a1-6)[Man(a1-2)Man(a1-2)Man(a1-3)]Man
# Summary of the method: as §1
# [30] = target: Man(a1-2)Man(a1-3)[Man(a1-2)Man(a1-6)]Man(a1-6)[Man(a1-2)Man(a1-2)Man(a1-3)]Man(b1-4)GlcNAc(b1-4)GlcNAc
# Summary of the method: as §1
# [31] = target: Man(a1-2)Man(a1-3)[Man(a1-6)]Man(a1-6)[Man(a1-2)Man(a1-3)]Man(b1-4)GlcNAc(b1-4)GlcNAc
# Summary of the method: as §1
# [32] = target: Man(a1-2)Man(a1-6)[Man(a1-3)]Man(a1-6)[Man(a1-2)Man(a1-2)Man(a1-3)]Man
# Summary of the method: as §1
binder,measurement,setting,value
"Lmo1413 (Listeria monocytogenes), Q8Y783 (protein) MKHAKKSLFTFIIFMTILSITFNPFSAKAAPLMLNLPAPQVDQLYIGDDYITGKLQQEVPMHYPGNAAYVLFNNKQYNITDYTVENDVNFRLKLPKTLEAGDTLNYFTITGNVLDPVAYPGQESYKLAGPFSPIEKANIQVNYVDETNQTLATSDTLSGKLGETYTTSPKAIDGYQVKETPTNATGTYTTNTETIQINYVYEKTAVEGANVSVEYINEATNESIAPTETLSGKIGTTFQAEVKEIDGYELSQVPSNQSGTYTDQTQSVIFKYKKITTPDEVAKDVTVTYKDTKGNQLADPVILKGDIGSTFETEAKSFKGYKLTKTPSNHSSVFTSDSQEVEYVYSKDDAVITPPVTPVNPDKPIINPVKPVNPATSTVPNKNISKKNTTKTVNQTGKTSTALQLPKTGDSENNLPLIIGVSLLISGVYIFTTRRKRVK",glycan array binding signal (z-score),[1],-0.256
same,glycan array binding signal (z-score),[2],-0.233
same,glycan array binding signal (z-score),[3],-0.095
same,glycan array binding signal (z-score),[4],0.302
same,glycan array binding signal (z-score),[5],-0.121
same,glycan array binding signal (z-score),[6],-0.106
same,glycan array binding signal (z-score),[7],1.42
same,glycan array binding signal (z-score),[8],2.98
same,glycan array binding signal (z-score),[9],-0.237
same,glycan array binding signal (z-score),[10],-0.221
same,glycan array binding signal (z-score),[11],-0.212
same,glycan array binding signal (z-score),GlcNAc(b1-3)Gal,-0.176
same,glycan array binding signal (z-score),[12],0.616
same,glycan array binding signal (z-score),GlcNAc(b1-3)Gal(b1-4)Glc,0.375
same,glycan array binding signal (z-score),[13],-0.093
same,glycan array binding signal (z-score),[14],-0.107
same,glycan array binding signal (z-score),GlcNAc(b1-3)GalNAc,-0.111
same,glycan array binding signal (z-score),GlcNAc(b1-3)Man,0.036
same,glycan array binding signal (z-score),[15],0.087
same,glycan array binding signal (z-score),[16],0.208
same,glycan array binding signal (z-score),[17],-0.092
same,glycan array binding signal (z-score),[18],0.117
same,glycan array binding signal (z-score),GlcNAc(b1-4)GlcNAc,-0.08
same,glycan array binding signal (z-score),[19],0.095
same,glycan array binding signal (z-score),[20],-0.093
same,glycan array binding signal (z-score),[21],-0.014
same,glycan array binding signal (z-score),[22],-0.016
same,glycan array binding signal (z-score),[23],0.859
same,glycan array binding signal (z-score),GlcNAc(b1-6)GalNAc,0.771
same,glycan array binding signal (z-score),GlcNAc3Prop(b1-4)GlcNAc,0.018
same,glycan array binding signal (z-score),[24],-0.155
same,glycan array binding signal (z-score),Kdn(a2-3)Gal(b1-3)GalNAc,0.042
same,glycan array binding signal (z-score),Kdn(a2-3)Gal(b1-3)GlcNAc,-0.186
same,glycan array binding signal (z-score),Kdn(a2-3)Gal(b1-4)Glc,-0.186
same,glycan array binding signal (z-score),Kdn(a2-3)Gal(b1-4)GlcNAc,-0.154
same,glycan array binding signal (z-score),[25],-0.192
same,glycan array binding signal (z-score),Kdn(a2-6)Gal(b1-4)GlcNAc,-0.144
same,glycan array binding signal (z-score),[26],-0.15
same,glycan array binding signal (z-score),[27],-0.182
same,glycan array binding signal (z-score),Man(a1-2)Man(a1-3)Man,-0.042
same,glycan array binding signal (z-score),[28],-0.167
same,glycan array binding signal (z-score),[29],-0.221
same,glycan array binding signal (z-score),[30],-0.148
same,glycan array binding signal (z-score),[31],-0.123
same,glycan array binding signal (z-score),[32],-0.129
